Over roughly 81,000 sequences, “one-hybrid fitness for binding NBS DNA” has its median near -0.1; the highest 2% begin near 0.36. The list shows a part of the results.
B1: Caulobacter ParB omega fusion; a variant is named by its letters at X, in order, B8GW30 (parent)
chain: MESVVVGEPGMSEGRRGLGRGLSALLGEVDAAPAQAPGEQLGGSREAPIEILQRNPDQPRRTFREEDLEDLSNSIREKGVLQPILVRPSPDTAGEYQIVAGERAWRAAQRAGLKTVPIMVRELDDLAVLEIGIIENVQRADLNVLEEALSYKVLMEKFERTQENIAQTIGKSXSHVANXMRLLXLPDEVQSYLVSGELTAXHARAIAAAADPVALAKQIIEGGLSVRETEALARKAPNLSAGKSKGGRPPRVKDTDTQALESDLSSVLGLDVSIDHRGSTGTLTITYATLEQLDDLCNRLTRGI

Variants of: B1
Assay: one-hybrid fitness for binding NBS DNA (the Noc-binding site; scaled: cognate 1, non-cognate 0); higher = stronger binding
Details: with NBS DNA site
In short: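 Selection: bacterial one-hybrid in E. coli USO, HIS3 reporter with the site 19 bp from the promoter, 48 hours at 37°C on M9-minus-histidine plus 0.1 mM IPTG and 5 mM 3-AT. Libraries were Caulobacter ParB with four randomised specificity codons, sequenced on Illumina before and after selection. Fitness is the rescaled log change in variant-to-wild-type read ratio, anchored to the cognate and non-cognate sites.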

one-hybrid fitness for binding NBS DNA, 0.227:
RKLH

one-hybrid fitness for binding NBS DNA, 0.251:
KRVQ

one-hybrid fitness for binding NBS DNA, 0.396:
RLCT

one-hybrid fitness for binding NBS DNA, 0.475:
RKER

one-hybrid fitness for binding NBS DNA, 0.294:
QKKF

one-hybrid fitness for binding NBS DNA, 0.203:
FWRY

one-hybrid fitness for binding NBS DNA, 0.398:
QYKK

one-hybrid fitness for binding NBS DNA, 0.267:
RRHK

one-hybrid fitness for binding NBS DNA, 0.245:
RRLG

one-hybrid fitness for binding NBS DNA, ≤ 0.2:
HDPI
KHVS
LPVC
EESA
NYQG
FSYW
HDWM
EPIF
CPDW
CYNA
EDSR
MSKS
PSGN
NIQR
YSAY
QCFV
VKDS
QVEM
YRDL
RLHH
LVIT
EIYG
RVDC
QLTG
TCPT
AHYG
TGNK
WKYS
CTER
TMGL
AGAF
ACHT
ESNM
WHQV
LCLV
TMTF
VRGG
YGAG
RYNM
AQSC
PADP
NSFQ
EFHR
DTGC
PASF
STAH
SNST
VYMW
MHCR
SQAQ
HCIY
YPIR
DATG
TWFK
NTKL
HGYT
NNVT
THKF
PADL
EMSG
ARCC
PRNI
PRYV
HLVN
PPAQ
MGWW
CVTT
MCQS
WMRC
NMSS
NTLL
NTSH
HNAK
QQPI
SYQK
PCNS
ITMK
HVQL
AAMQ
MRPT
LKYC
WTRW
LHEG
RICC
PAKD
AYAY
NGTY
KQSE
SMKV
ITVP
PQDC
LSFI
GSSN
PLDD
VFRG
HMAN
EECR
KKCG
ATCA
MWQS
VLNY
QLPP
IVPS
VPAV
KRPF
QHSP
SPDN
VTPV
HLKN
ESDR
CVHC
WYNC
CQCL
KGKV
RNGP
RQMD
TIPM
PRFH
KRIP
QELQ
CAKG
ACWL
GTAD
SNYS
GNPR
DATL
GSQC
ILGL
AKAR
QPVH
NTNE
KGEV
LLIV
TQLQ
YLSC
LRRA
WNCL
VWYT
VYMC
RQTD
HHSP
QSKE
QPYN
QFIM
QVLA
DMSS
APAM
HQTG
REHW
YAYT
EQRF
TSGS
MHAT
DVHC
QAWW
CRTL
LYAV
QTML
TWSG
SYQW
HKVC
QVER
APQY
HSEQ
CFTM
DSRW
PWPC
SMTC
SCQY
CIRD
MMLG
IFKT
TKET
LMNG
GCIS
HCSE
AQHW
DRHG
WLGC
QMSL
FHNQ
STWT
SVSV
RQYY
IRAV
TWYR
VTLE
SPMY
PDYR
QFNI
WLVA
CKDR
VWLP
WCAC
MMTS
PGPR
AALL
KCQR
EPTT
CQRY
TKYM
QTLN
PNAQ
CLDE
PKAK
PHEF
PLLE
QACC
PKRG
RFHM
NRSI
NLDH
ITYM
PSHY
ICNL
RCVG
WVNG
LLWV
SMLI
PIEG
DGIM
TRHE
SCKK
CILL
KSRH
DKNT
MHPL
AVPE
TMPC
LVIC
WYAS
ALPT
GRLY
SFMH
NNNL
DRKS
NALV
QYHE
CGNI
NTNQ
PTWW
KPLD
FSLC
VVQF
NVGS
VAQW
PPTR
MCMR
TLHG
HSHM
CMRT
REFG
VMAV
SLIG
PNPL
LDCG
NVLW
KMQC
TLIR
CWAY
QPPQ
PAQC
TAQD
PAVK
INYG
LYVP
VKNT
SGAY
VYLV
FESD
LHKI
NRCV
ARGG
AIES
KVKV
RGQE
KTKM
VSDC
MEDR
RWQM
KRNG
VRKG
WHTS
PRYK
TPKL
KVKE
NHYF
VIRT
HART
LGWC
VGSV
DATA
NTGC
HAPS

one-hybrid fitness for binding NBS DNA, 0.37:
QHSS

one-hybrid fitness for binding NBS DNA, 0.326:
QCCA

one-hybrid fitness for binding NBS DNA, 0.314:
RRTC
